# Laboratory results as given in a collection of fitness landscapes (doi:10.1126/science.1257360).
# The other results are listed elsewhere or left out.
# B1: PhoQ; a variant is named by its letters at X, in order, P23837 (parent)
# chain: MKKLLRLFFPLSLRVRFLLATAAVVLVLSLAYGMVALIGYSVSFDKTTFRLLRGESNLFYTLAKWENNKLHVELPENIDKQSPTMTLIYDENGQLLWAQRDVPWLMKMIQPDWLKSNGFHEIEADVNDTSLLLSGDHSIQQQLQEVREDDDDAEMTHSVAVNVYPATSRMPKLTIVVVDTIPVELKSSYMVWSWFIYVLSANLLLVIPLLWVAAWWSLRPIEALAKEVRELEEHNRELLNPATTRELTSLVRNLNRLLKSERERYDKYRTTLTDLTHSLKTPLXXLQXXLRSLRSEKMSVSDAEPVMLEQISRISQQIGYYLHRASMRGGTLLSRELHPVAPLLDNLTSALNKVYQRKGVNISLDISPEISFVGEQNDFVEVMGNVLDNACKYCLEFVEISARQTDEHLYIVVEDDGPGIPLSKREVIFDRGQRVDTLRPGQGVGLAVAREITEQYEGKIVAGESMLGGARMEVIFGRQHSAPKDE
# Variants of: B1
# Assay: enrichment ratio after two sorts for PhoP signalling (ratio (wild type AVST 3.29)); higher = more functional
# Settings: with PhoP (E. coli)
row,Variant,enrichment ratio
1,DDHI,≤ 0.25
2,RIRQ,≤ 0.25
3,HQMH,≤ 0.25
4,RLPN,≤ 0.25
5,IPMS,≤ 0.25
6,NGLH,≤ 0.25
7,ANSD,≤ 0.25
8,TMYG,≤ 0.25
9,NANR,≤ 0.25
10,MPYK,≤ 0.25
11,EAHK,≤ 0.25
12,TGCI,9.63
13,YGGD,≤ 0.25
14,IIDR,≤ 0.25
15,QLSD,≤ 0.25
16,LPDF,≤ 0.25
17,HMNP,≤ 0.25
18,NRVG,≤ 0.25
19,VQWA,≤ 0.25
20,DVWY,≤ 0.25
21,VIIK,≤ 0.25
22,KYIW,≤ 0.25
23,PGWE,≤ 0.25
24,IGAL,≤ 0.25

row,Variant,enrichment ratio
1,RFSD,≤ 0.25
2,VPVG,≤ 0.25
3,MHVT,2.1
4,KVED,≤ 0.25
5,VYTE,≤ 0.25
6,YSDI,≤ 0.25
7,LSVH,≤ 0.25
8,PHQA,≤ 0.25
9,GWWS,≤ 0.25
10,AWQI,≤ 0.25
11,VHVL,≤ 0.25
12,RRDK,≤ 0.25
13,YHDQ,≤ 0.25
14,WSGH,≤ 0.25
15,PPLH,≤ 0.25
16,RWFP,≤ 0.25
17,HDVD,≤ 0.25
18,VYPN,≤ 0.25
19,GWGT,≤ 0.25
20,NYWH,≤ 0.25
21,IKDG,≤ 0.25
22,MKSF,0.322
23,ERID,≤ 0.25
24,NMCW,≤ 0.25

row,Variant,enrichment ratio
1,MFVE,≤ 0.25
2,SKLI,8.76
3,HNHM,≤ 0.25
4,YPRA,≤ 0.25
5,AEPP,≤ 0.25
6,AHVD,≤ 0.25
7,SEYA,1.86
8,ALMY,≤ 0.25
9,FTGL,≤ 0.25
10,SCIP,≤ 0.25
11,HRNP,≤ 0.25
12,MPIK,≤ 0.25
13,YNHF,≤ 0.25
14,ACVN,31.5
15,ECIN,≤ 0.25
16,DWNY,≤ 0.25
17,RNCH,≤ 0.25
18,MDAH,≤ 0.25
19,DGIM,≤ 0.25
20,WHPI,≤ 0.25
21,YHMA,≤ 0.25
22,VRYQ,≤ 0.25
23,DNWS,≤ 0.25
24,IMAH,≤ 0.25

row,Variant,enrichment ratio
1,WFCQ,≤ 0.25
2,INDP,≤ 0.25
3,DHPC,≤ 0.25
4,GFHG,≤ 0.25
5,FMRF,≤ 0.25
6,LGDL,≤ 0.25
7,WVRY,≤ 0.25
8,HMRR,≤ 0.25
9,EVNL,≤ 0.25
10,TDTG,0.585
11,FGPV,≤ 0.25
12,VGYG,≤ 0.25
13,ANLN,8.47
14,DNLA,≤ 0.25
15,HHTY,≤ 0.25
16,ERYC,≤ 0.25
17,YMCG,≤ 0.25
18,HRCL,≤ 0.25
19,MMSN,≤ 0.25
20,MLGS,≤ 0.25
21,FNIP,≤ 0.25
22,TITW,≤ 0.25
23,ANRY,≤ 0.25
24,DDDW,≤ 0.25

row,Variant,enrichment ratio
1,GNRT,≤ 0.25
2,IRYA,≤ 0.25
3,VNIH,≤ 0.25
4,NDMG,≤ 0.25
5,LDHC,≤ 0.25
6,RNPT,≤ 0.25
7,ELDM,≤ 0.25
8,SVMQ,15.2
9,YWTP,≤ 0.25
10,NLKF,≤ 0.25
11,TDCT,14.8
12,DENM,≤ 0.25
13,PYGW,≤ 0.25
14,KLHP,≤ 0.25
15,SDEA,≤ 0.25
16,PNVR,≤ 0.25
17,SKDA,≤ 0.25
18,WIWF,≤ 0.25
19,PLAR,≤ 0.25
20,LDRE,≤ 0.25
21,LHVG,≤ 0.25
22,FPIP,≤ 0.25
23,GKRI,≤ 0.25
24,EKCG,≤ 0.25

row,Variant,enrichment ratio
1,HHFG,≤ 0.25
2,RAQN,≤ 0.25
3,FFRN,≤ 0.25
4,VNGH,≤ 0.25
5,HDAC,≤ 0.25
6,VEPG,≤ 0.25
7,PGQG,≤ 0.25
8,YREA,≤ 0.25
9,LSHC,≤ 0.25
10,FLYR,≤ 0.25
11,ATSP,≤ 0.25
12,GQSE,≤ 0.25
13,PDGI,≤ 0.25
14,FTQF,≤ 0.25
15,GVFD,≤ 0.25
16,GNWS,≤ 0.25
17,NRID,≤ 0.25
18,VNDQ,≤ 0.25
19,DWCC,≤ 0.25
20,IYSV,≤ 0.25
21,VRKC,≤ 0.25
22,PNDM,≤ 0.25
23,YEQN,0.38
24,GEKA,≤ 0.25

row,Variant,enrichment ratio
1,APFP,≤ 0.25
2,RASS,≤ 0.25
3,VTDD,≤ 0.25
4,WWYM,≤ 0.25
5,SACR,3.76
6,DWAS,≤ 0.25
7,IKCP,≤ 0.25
8,LPNA,≤ 0.25
9,WTDC,≤ 0.25
10,SGRY,≤ 0.25
11,RCDE,≤ 0.25
12,SEGW,≤ 0.25
13,ARQA,≤ 0.25
14,AWCL,0.642
15,KSLN,≤ 0.25
16,VKIP,≤ 0.25
17,FGTL,≤ 0.25
18,FDLP,≤ 0.25
19,SWQW,≤ 0.25
20,GICD,6.53
21,PHLR,≤ 0.25
22,FVFT,≤ 0.25
23,AIQV,4.69
24,DITQ,≤ 0.25

row,Variant,enrichment ratio
1,NGPI,≤ 0.25
2,EEDA,≤ 0.25
3,TWWC,≤ 0.25
4,LFDY,≤ 0.25
5,DGPW,≤ 0.25
6,SFYA,≤ 0.25
7,KSCW,≤ 0.25
8,YRKV,≤ 0.25
9,NWWW,≤ 0.25
10,NSNC,≤ 0.25
11,IPPH,≤ 0.25
12,TKSA,0.579
13,RYFW,≤ 0.25
14,VHFH,≤ 0.25
15,YIGK,≤ 0.25
16,QWAW,≤ 0.25
17,RKHL,≤ 0.25
18,TLSE,10.7
19,SKTH,≤ 0.25
20,LMHS,≤ 0.25
21,RQFW,≤ 0.25
22,IFWW,≤ 0.25
23,IDFM,≤ 0.25
24,EHHV,≤ 0.25

row,Variant,enrichment ratio
1,SARK,0.446
2,PGNL,≤ 0.25
3,KQSA,≤ 0.25
4,NHIG,≤ 0.25
5,YCTT,≤ 0.25
6,SKRN,≤ 0.25
7,QNPH,≤ 0.25
8,GFDY,≤ 0.25
9,FYVN,≤ 0.25
10,IECG,≤ 0.25
11,MKCN,≤ 0.25
12,GYIS,≤ 0.25
13,RMNF,≤ 0.25
14,MVIF,≤ 0.25
15,LGKP,≤ 0.25
16,SEFE,4.76
17,LKGF,≤ 0.25
18,GPVS,≤ 0.25
19,TWGD,≤ 0.25
20,NHNR,≤ 0.25
21,LILC,≤ 0.25
22,FVKC,≤ 0.25
23,FTCP,≤ 0.25
24,TGRM,≤ 0.25

row,Variant,enrichment ratio
1,NRST,≤ 0.25
2,EHAK,≤ 0.25
3,CHSG,≤ 0.25
4,IMHL,≤ 0.25
5,MCYP,≤ 0.25
6,FNAM,≤ 0.25
7,ALRP,≤ 0.25
8,TCYR,≤ 0.25
9,VAWY,≤ 0.25
10,HLAY,≤ 0.25
11,GRCV,≤ 0.25
12,TQKA,≤ 0.25
13,MQEL,≤ 0.25
14,GKQM,≤ 0.25
15,SHNQ,0.892
16,LNYH,≤ 0.25
17,FDQE,≤ 0.25
18,VQDL,≤ 0.25
19,GNDA,≤ 0.25
20,VAYS,≤ 0.25
21,WVWR,≤ 0.25
22,ILDI,≤ 0.25
23,GWFW,≤ 0.25
24,WCLV,≤ 0.25

row,Variant,enrichment ratio
1,MVAI,5.52
2,YLML,≤ 0.25
3,MHMV,≤ 0.25
4,IQVG,≤ 0.25
5,NRMR,≤ 0.25
6,REAT,≤ 0.25
7,TNRH,≤ 0.25
8,QHIE,≤ 0.25
9,LNLE,≤ 0.25
10,YKER,≤ 0.25
11,RTHA,≤ 0.25
12,YSNP,≤ 0.25
13,PNFD,≤ 0.25
14,CAVP,≤ 0.25
15,WEGD,≤ 0.25
16,EIYP,≤ 0.25
17,NRGC,≤ 0.25
18,NMSV,≤ 0.25
19,SNWK,≤ 0.25
20,NDLM,≤ 0.25
21,EHRR,≤ 0.25
22,GYHP,≤ 0.25
23,NWFN,≤ 0.25
24,YRYW,≤ 0.25

row,Variant,enrichment ratio
1,HWMF,≤ 0.25
2,HRCS,≤ 0.25
3,HAIS,≤ 0.25
4,RSHL,0.36
5,PIVG,≤ 0.25
6,KKIK,≤ 0.25
7,WSPK,≤ 0.25
8,RKHC,≤ 0.25
9,AKDD,≤ 0.25
10,MPVL,≤ 0.25
11,IMLA,≤ 0.25
12,VVRA,≤ 0.25
13,WMIY,≤ 0.25
14,LQEC,≤ 0.25
15,ILCT,≤ 0.25
16,VACD,≤ 0.25
17,LMHT,≤ 0.25
18,AKPH,≤ 0.25
19,NFRS,≤ 0.25
20,HPTP,≤ 0.25
21,TGTK,≤ 0.25
22,YHES,≤ 0.25
23,FFWW,≤ 0.25
24,KRPR,≤ 0.25

row,Variant,enrichment ratio
1,MLGH,≤ 0.25
2,RWPD,≤ 0.25
3,GAVR,≤ 0.25
4,IEIK,≤ 0.25
5,QHKQ,≤ 0.25
6,FGIF,≤ 0.25
7,EFTV,≤ 0.25
8,ISPT,≤ 0.25
9,RYVS,≤ 0.25
10,GMTY,≤ 0.25
11,QLLC,≤ 0.25
12,AFCC,≤ 0.25
13,HAMF,≤ 0.25
14,SCSS,10.1
15,RRRH,≤ 0.25
16,NRHQ,≤ 0.25
17,FWFC,≤ 0.25
18,VLHG,≤ 0.25
